Out of some 310,000 compounds screened, about 2,200 (0.71%) showed an effect of 50% or more. The effect is printed as a negative number. The list shows a part of the results.

The target in this experiment is human ether-à-go-go-related gene (hERG) potassium channel (human, UniProt Q12809). The experiment is described as follows: primary screen, population patch clamp on CHO cells stably expressing hERG.
human ether-à-go-go-related gene (hERG) potassium channel, sequence (Q12809 whole entry, looked up): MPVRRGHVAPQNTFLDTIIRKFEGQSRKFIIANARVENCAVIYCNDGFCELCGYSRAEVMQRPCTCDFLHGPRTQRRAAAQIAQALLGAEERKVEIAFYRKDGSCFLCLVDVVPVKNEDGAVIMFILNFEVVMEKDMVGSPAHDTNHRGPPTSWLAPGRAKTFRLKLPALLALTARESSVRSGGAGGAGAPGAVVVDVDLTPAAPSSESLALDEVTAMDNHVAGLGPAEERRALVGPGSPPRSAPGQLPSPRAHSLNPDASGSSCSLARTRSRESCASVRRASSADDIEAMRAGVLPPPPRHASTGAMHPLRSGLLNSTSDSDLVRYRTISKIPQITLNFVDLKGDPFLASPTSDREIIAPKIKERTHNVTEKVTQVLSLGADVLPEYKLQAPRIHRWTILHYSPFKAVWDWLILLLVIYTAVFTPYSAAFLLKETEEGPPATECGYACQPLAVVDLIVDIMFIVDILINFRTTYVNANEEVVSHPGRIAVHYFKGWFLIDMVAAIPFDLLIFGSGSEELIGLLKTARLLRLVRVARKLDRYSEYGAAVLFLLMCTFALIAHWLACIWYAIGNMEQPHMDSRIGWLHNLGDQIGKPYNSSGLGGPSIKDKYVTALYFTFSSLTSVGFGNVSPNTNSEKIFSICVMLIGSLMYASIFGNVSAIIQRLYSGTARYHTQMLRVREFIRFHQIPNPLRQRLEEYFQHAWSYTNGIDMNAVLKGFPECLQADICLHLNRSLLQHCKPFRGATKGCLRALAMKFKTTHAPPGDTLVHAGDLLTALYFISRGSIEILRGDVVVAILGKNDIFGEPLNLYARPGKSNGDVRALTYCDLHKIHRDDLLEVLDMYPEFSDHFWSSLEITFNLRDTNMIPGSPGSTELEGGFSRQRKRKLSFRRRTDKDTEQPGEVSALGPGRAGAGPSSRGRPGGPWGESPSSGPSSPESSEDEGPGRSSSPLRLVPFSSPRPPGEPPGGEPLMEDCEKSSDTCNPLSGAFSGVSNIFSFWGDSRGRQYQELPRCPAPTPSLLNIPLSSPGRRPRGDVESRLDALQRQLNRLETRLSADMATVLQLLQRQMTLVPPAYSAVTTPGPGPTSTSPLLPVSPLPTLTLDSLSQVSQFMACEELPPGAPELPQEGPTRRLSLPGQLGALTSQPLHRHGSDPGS
In the case of `CC(C)n1cnc2cc(NCc3ccccc3O)ccc21`, the “hERG current change (%, negative = inhibition) at 1uM” value came out at 20%.
The figure for `O=C(O)Cn1nc(-c2ccccc2)c2ccccc2c1=O` is 16.8%; for `O=C(N/N=C/c1c[nH]c2ccccc12)c1ccccc1Cl` it is 5.51%; for `COc1ccccc1CNc1ccc2c(c1)CCC2` it is 9.21%.
Regarding `Cc1ccc(NC(=O)NCc2ccccn2)cc1Cl`, the “hERG current change (%, negative = inhibition) at 1uM” value is 14.9%.
`Cc1ccc(C)c(C(=O)COC(=O)c2cc([N+](=O)[O-])ccc2NCCO)c1`: the “hERG current change (%, negative = inhibition) at 1uM” value was found to be 5.06%.
For the molecule `Cc1oc(-c2cccs2)nc1CN1CCN(CCC(C)C)C(CCO)C1` (stereo not drawn), the “hERG current change (%, negative = inhibition) at 1uM” value came to 0.0981%.
The figure for `COc1ccc(C2=[N+]([O-])C(C)(C)N(O)C2(C)C)cc1` is 10.1%; for `Cc1ccc(N2CCN(/N=C/C3=C(N4CCOCC4)C(=C\c4ccccc4)/CC3)CC2)cc1` it is 16.3%.
On to `Cc1ccc(-n2cc(CN3CCC(O)(c4ccccn4)CC3)c(-c3ccc(F)cc3)n2)cc1`, for which the “hERG current change (%, negative = inhibition) at 1uM” value was 2.68%.
For the molecule `CCOc1ccc(/C=C/C(=O)CCC(=O)O)cc1`, the “hERG current change (%, negative = inhibition) at 1uM” value is 11.6%.
To `S=C(Nc1ccc(Oc2ccccc2)cc1)NC1CCCCCC1` belongs 10.4%.
As to `COc1ccccc1N(Cc1ccccc1)S(=O)(=O)c1cccc(C(=O)Nc2cccc(C)n2)c1`, the “hERG current change (%, negative = inhibition) at 1uM” value came out at 11.6%.
Turning to `Cc1cc(C)c(C(N)=O)c(Nc2cccc(Cl)c2)n1`, the “hERG current change (%, negative = inhibition) at 1uM” value is listed as 12.6%.
The figure for `CCCn1c(SCc2cc(=O)[nH]c3ccccc23)nc2c1c(=O)n(C)c(=O)n2C` is 0.116%; for `Cn1c(N)c(C(=O)CSc2nc3ccccc3n2-c2ccccc2)c(=O)n(C)c1=O` it is 7.99%; for `COc1cc(C(=O)Nc2nccs2)c(Br)c(OC)c1OC` it is 16%.
Regarding `CCOC(=O)NC1(C(F)(F)F)NC(=O)N(c2ccc(F)cc2)C1=O` (stereo not drawn), the “hERG current change (%, negative = inhibition) at 1uM” value was 9.82%.
For `Cc1ccc(S(=O)(=O)NCC(=O)OCC(=O)N(Cc2ccccc2)C(C)(C)C)cc1`, the “hERG current change (%, negative = inhibition) at 1uM” value was determined as 5.51%.
`CCOC(=O)C1C(=O)C=C(c2ccc(C)cc2)CC1c1ccccc1` (stereo not drawn): the “hERG current change (%, negative = inhibition) at 1uM” value amounted to 12.4%.
As to `CN(C(=O)CSc1nnc(-c2cccc(F)c2)n1N)C1CCS(=O)(=O)C1` (stereo not drawn), the “hERG current change (%, negative = inhibition) at 1uM” value worked out at 7.58%.
For `Clc1ccc(OCCCn2ccnc2)c(Br)c1.O=C(O)C(=O)O`, the “hERG current change (%, negative = inhibition) at 1uM” value is 2.88%.
To `COc1ccc(NC(=O)c2cc(S(=O)(=O)N3CCOCC3)cs2)cc1` belongs 17.9%.
In the case of `N#Cc1ccccc1NC(=O)Nc1cccc(Cl)c1`, the “hERG current change (%, negative = inhibition) at 1uM” value was 3.29%.
The figure for `O=C(NCc1cccnc1)C1CC(c2ccc(F)cc2)=NO1` (stereo not drawn) is 0.21%; for `O=C(Nc1nnc(C2CC2)o1)c1ccc(S(=O)(=O)N2CCc3ccccc3C2)cc1` it is 3.26%.
Take `Cn1c(SCc2c(F)cccc2Cl)nnc1-c1cnccn1`: the “hERG current change (%, negative = inhibition) at 1uM” value stood at 11.2%.
To `Cc1ccc(Nc2ccc(C(=O)NCCc3ccccc3)cn2)cc1` belongs 3.46%.
As for `Oc1c(/C=N/c2ncn[nH]2)ccc2ccccc12`, the “hERG current change (%, negative = inhibition) at 1uM” value was -4.85%.
The figure for `Cc1c(C(=O)C(=O)NCc2ccco2)c2ccccc2n1C` is 4.06%; for `CC(NC(=O)C1CCCCC1)C(c1cccs1)N1CCOCC1` (stereo not drawn) it is 10.9%; for `Clc1ccc(/C=N/N2CCN(Cc3ccccc3)CC2)cc1` it is 15.2%.
To `O=C(NC12CC3CC(CC(C3)C1)C2)c1cccnc1Cl` belongs 13.3%; to `C/C=C/c1ccc(OCCCCN2CCN(CC)CC2)c(OC)c1.O=C(O)C(=O)O`, -2.47%.
With `Cc1ccccc1NC(=O)Cc1nc(COC(=O)/C=C/c2ccccc2)cs1`, the “hERG current change (%, negative = inhibition) at 1uM” value is -0.378%.
For `O=C(c1cc2ncc(CCCl)cn2n1)N1CCCCCC1`, the “hERG current change (%, negative = inhibition) at 1uM” value is 20.3%.
As to `c1ccc(-c2nc3cccnc3nc2-c2ccccc2)cc1`, the “hERG current change (%, negative = inhibition) at 1uM” value came out at 6.07%.
Consider `Cc1ccc(CNC(=O)CCSCCC(=O)NCc2ccc(C)cc2)cc1`, for which the “hERG current change (%, negative = inhibition) at 1uM” value is 10.4%.
For `Cc1cccc(NC(=O)CCC(=O)c2cccs2)n1`, the “hERG current change (%, negative = inhibition) at 1uM” value is 18.7%.
The figure for `Cc1ccc(S(=O)(=O)N2CCOCC2)cc1NC(=O)CSc1nccn1C` is 7.91%; for `CC(=O)Nc1cccc(/C(C)=N/NC(=O)c2ccc(NS(=O)(=O)c3cccs3)cc2)c1` it is 5.87%.
The figure for `COc1cc(C(=O)n2cnc3ccccc32)c([N+](=O)[O-])cc1OC` is 12%; for `Cc1cc(C)nc(N/N=C2/CCSc3ccc(F)cc32)n1` it is 8.52%; for `Cc1onc(-c2c(F)cccc2Cl)c1C(=O)Nc1nc2ccccc2[nH]1` it is 6.47%.
To `COc1cc2c(c3oc(=O)cc(CC(=O)O)c13)CCC(C)(C)O2` belongs 1.4%.

These data come from paper PMC4336329 (PLoS ONE, 2015).
